Measured values: the supplement of paper PMC8728848
Some of the results follow.

Experiments:
Test in all cases: glycan array binding signal (z-score within array); higher = stronger binding
Settings in all cases: glycan notation: IUPAC condensed, linker removed
[1] = biological target: Neu5Ac(a2-3)Gal(b1-3)[Fuc(a1-4)]GlcNAc
In short: (§1)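 Columns mapping to the same glycan were averaged after glycan names were converted to IUPAC-condensed notation. The data come from 3228 arrays in the Consortium for Functional Glycomics database, limited to those with an available protein sequence. Binding is reported as a within-array Z-score averaged across arrays of one protein sequence and across linkers.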

[2] = biological target: Neu5Ac(a2-3)Gal(b1-3)[Fuc(a1-4)]GlcNAc(b1-3)Gal(b1-3)[Fuc(a1-4)]GlcNAc
In short: as §1

[3] = biological target: Neu5Ac(a2-3)Gal(b1-3)[Fuc(a1-4)]GlcNAc(b1-3)Gal(b1-4)[Fuc(a1-3)]GlcNAc
In short: as §1

[4] = biological target: Neu5Ac(a2-3)Gal(b1-3)[GlcNAc(b1-6)]GalNAc
In short: as §1

[5] = biological target: Neu5Ac(a2-3)Gal(b1-3)[Neu5Ac(a2-6)]GalNAc
In short: as §1

[6] = biological target: Neu5Ac(a2-3)Gal(b1-3)[Neu5Ac(a2-6)]GlcNAc(b1-3)[Fuc(a1-3)[Gal(b1-4)]GlcNAc(b1-6)]Gal(b1-4)Glc
In short: as §1

[7] = biological target: Neu5Ac(a2-3)Gal(b1-3)]Neu5Ac(a2-3)Gal(b1-4)]GlcNAc
In short: as §1

Neu5Ac(a2-3)Gal(b1-4)Glc = biological target: Neu5Ac(a2-3)Gal(b1-4)Glc
In short: as §1

[8] = biological target: Neu5Ac(a2-3)Gal(b1-4)GlcNAc
In short: as §1

[9] = biological target: Neu5Ac(a2-3)Gal(b1-4)GlcNAc(b1-2)Man
In short: as §1

[10] = biological target: Neu5Ac(a2-3)Gal(b1-4)GlcNAc(b1-2)Man(a1-3)[GlcNAc(b1-4)][Neu5Ac(a2-3)Gal(b1-4)GlcNAc(b1-2)Man(a1-6)]Man(b1-4)GlcNAc(b1-4)GlcNAc
In short: as §1

[11] = biological target: Neu5Ac(a2-3)Gal(b1-4)GlcNAc(b1-2)Man(a1-3)[Neu5Ac(a2-3)Gal(b1-4)GlcNAc(b1-2)Man(a1-6)]Man(b1-4)GlcNAc(b1-4)GlcNAc
In short: as §1

[12] = biological target: Neu5Ac(a2-3)Gal(b1-4)GlcNAc(b1-2)Man(a1-3)[Neu5Ac(a2-3)Gal(b1-4)GlcNAc(b1-2)Man(a1-6)]Man(b1-4)GlcNAc(b1-4)[Fuc(a1-6)]GlcNAc
In short: as §1

[13] = biological target: Neu5Ac(a2-3)Gal(b1-4)GlcNAc(b1-2)Man(a1-3)[Neu5Ac(a2-6)Gal(b1-4)GlcNAc(b1-2)Man(a1-6)]Man(b1-4)GlcNAc(b1-4)GlcNAc
In short: as §1

[14] = biological target: Neu5Ac(a2-3)Gal(b1-4)GlcNAc(b1-2)[Neu5Ac(a2-3)Gal(b1-4)GlcNAc(b1-4)]Man(a1-3)[GlcNAc(b1-4)][Neu5Ac(a2-3)Gal(b1-4)GlcNAc(b1-2)[Neu5Ac(a2-3)Gal(b1-4)GlcNAc(b1-6)]Man(a1-6)]Man(b1-4)GlcNAc(b1-4)GlcNAc
In short: as §1

[15] = biological target: Neu5Ac(a2-3)Gal(b1-4)GlcNAc(b1-2)[Neu5Ac(a2-3)Gal(b1-4)GlcNAc(b1-4)]Man(a1-3)[GlcNAc(b1-4)][Neu5Ac(a2-3)Gal(b1-4)GlcNAc(b1-4)Man(a1-6)]Man(b1-4)GlcNAc(b1-4)GlcNAc
In short: as §1

[16] = biological target: Neu5Ac(a2-3)Gal(b1-4)GlcNAc(b1-2)[Neu5Ac(a2-3)Gal(b1-4)GlcNAc(b1-6)]Man(a1-6)[Neu5Ac(a2-3)Gal(b1-4)GlcNAc(b1-2)Man(a1-3)]Man(b1-4)GlcNAc(b1-4)GlcNAc
In short: as §1

[17] = biological target: Neu5Ac(a2-3)Gal(b1-4)GlcNAc(b1-2)[Neu5Ac(a2-3)Gal(b1-4)GlcNAc(b1-6)]Man(a1-6)[Neu5Ac(a2-3)Gal(b1-4)GlcNAc(b1-2)Man(a1-3)][GlcNAc(b1-4)]Man(b1-4)GlcNAc(b1-4)GlcNAc
In short: as §1

[18] = biological target: Neu5Ac(a2-3)Gal(b1-4)GlcNAc(b1-3)Gal
In short: as §1

[19] = biological target: Neu5Ac(a2-3)Gal(b1-4)GlcNAc(b1-3)Gal(b1-3)GlcNAc
In short: as §1

[20] = biological target: Neu5Ac(a2-3)Gal(b1-4)GlcNAc(b1-3)Gal(b1-4)GlcNAc
In short: as §1

[21] = biological target: Neu5Ac(a2-3)Gal(b1-4)GlcNAc(b1-3)Gal(b1-4)GlcNAc(b1-2)Man(a1-3)[Neu5Ac(a2-3)Gal(b1-4)GlcNAc(b1-3)Gal(b1-4)GlcNAc(b1-2)Man(a1-6)]Man(b1-4)GlcNAc(b1-4)GlcNAc
In short: as §1

[22] = biological target: Neu5Ac(a2-3)Gal(b1-4)GlcNAc(b1-3)Gal(b1-4)GlcNAc(b1-3)Gal(b1-4)GlcNAc
In short: as §1

[23] = biological target: Neu5Ac(a2-3)Gal(b1-4)GlcNAc(b1-3)Gal(b1-4)GlcNAc(b1-3)Gal(b1-4)GlcNAc(b1-2)Man(a1-3)[Neu5Ac(a2-3)Gal(b1-4)GlcNAc(b1-3)Gal(b1-4)GlcNAc(b1-3)Gal(b1-4)GlcNAc(b1-2)Man(a1-6)]GalNAc
In short: as §1

[24] = biological target: Neu5Ac(a2-3)Gal(b1-4)GlcNAc(b1-3)Gal(b1-4)GlcNAc(b1-3)GalNAc
In short: as §1

[25] = biological target: Neu5Ac(a2-3)Gal(b1-4)GlcNAc(b1-3)Gal(b1-4)GlcNAc(b1-3)[Neu5Ac(a2-3)Gal(b1-4)GlcNAc(b1-3)Gal(b1-4)GlcNAc(b1-6)]GalNAc
In short: as §1

[26] = biological target: Neu5Ac(a2-3)Gal(b1-4)GlcNAc(b1-3)Gal(b1-4)GlcNAc(b1-6)[Gal(b1-3)]GalNAc
In short: as §1

[27] = biological target: Neu5Ac(a2-3)Gal(b1-4)GlcNAc(b1-3)Gal(b1-4)[Fuc(a1-3)]GlcNAc
In short: as §1

[28] = biological target: Neu5Ac(a2-3)Gal(b1-4)GlcNAc(b1-3)GalNAc
In short: as §1

[29] = biological target: Neu5Ac(a2-3)Gal(b1-4)GlcNAc(b1-3)[Neu5Ac(a2-3)Gal(b1-4)GlcNAc(b1-6)]GalNAc
In short: as §1

B1: GS7807E-bfa-538-23-538 (Bacteroides fragilis) (protein)
chain: TDSFESFNTNEAGFDNDSKKQDFNYYGIPLGIIQQGIYFNYDWGSGKNWPFQTMQNLGADLFSGYVHDFNPFNEGKNNSTYYMMDGWNGSTWDNTYGYIMPEVQKSETINEKDNIGFFGITKILKVELMHRLSDLYGPIVYTQFGSKTGSTPDTQQEAYKAFFNDLDTGIAKIREYQKANPDIESFAKFDILMPQGKRTFSEWIRFANSLRLRLAVRIAMADSKLAVAEAQKALTDEEGLLEGNDEVVAVSTSSGYTNPFGEINKAWGEVFMNANMESLLVGYEDPRMEKYFDKATGSDATSLIDYKGTYKGIRQGTGFSHKNYNGHSKSTITQQTDAVLMTPAEVWFLRAEAALRGWSSESVKDCYEKGVKASFAQWGAAGAEAYLESDRKPSDYVDAFKAANNVKAVNTLTPKWDDAAGNEDKLGRIITQKWLAMFPEGGEAWAEQRRTGYPRLFPVLVNQSEGTVDTNLGPRRLNFFVGIKTTNPEQYTQLVNALGGIDNCGTRLWWDTGRNF
- glycan array binding signal (z-score) [1]: -0.626
- glycan array binding signal (z-score) [2]: -0.598
- glycan array binding signal (z-score) [3]: -0.149
- glycan array binding signal (z-score) [4]: -0.632
- glycan array binding signal (z-score) [5]: -0.384
- glycan array binding signal (z-score) [6]: -0.689
- glycan array binding signal (z-score) [7]: -0.639
- glycan array binding signal (z-score) (Neu5Ac(a2-3)Gal(b1-4)Glc): -0.639
- glycan array binding signal (z-score) [8]: -0.664
- glycan array binding signal (z-score) [9]: 2.92
- glycan array binding signal (z-score) [10]: -0.689
- glycan array binding signal (z-score) [11]: -0.673
- glycan array binding signal (z-score) [12]: -0.302
- glycan array binding signal (z-score) [13]: -0.132
- glycan array binding signal (z-score) [14]: -0.734
- glycan array binding signal (z-score) [15]: -0.714
- glycan array binding signal (z-score) [16]: 0.242
- glycan array binding signal (z-score) [17]: -0.676
- glycan array binding signal (z-score) [18]: -0.716
- glycan array binding signal (z-score) [19]: -0.667
- glycan array binding signal (z-score) [20]: -0.707
- glycan array binding signal (z-score) [21]: -0.106
- glycan array binding signal (z-score) [22]: -0.66
- glycan array binding signal (z-score) [23]: -0.121
- glycan array binding signal (z-score) [24]: -0.693
- glycan array binding signal (z-score) [25]: 0.002
- glycan array binding signal (z-score) [26]: -0.401
- glycan array binding signal (z-score) [27]: -0.663
- glycan array binding signal (z-score) [28]: -0.711
- glycan array binding signal (z-score) [29]: -0.675
